These results are taken from ChEMBL document CHEMBL4888484, “Replenishing the malaria drug discovery pipeline: Screening and hit evaluation of the MMV Hit Generation Library 1 (HGL1) against asexual blood stage Plasmodium falciparum ,using a nano luciferase reporter read-out” (2022).

Molecules are shown by their SMILES. Among all 150,000 compounds or so, about 540 (0.36%) showed an effect of 50% or more. The list shows a part of the results.

The test system of the assay is Plasmodium falciparum. Put plainly: Primary screen in NF54 nanoGlo assay, in single point, at 2uM, 72h; a lower Z score goes with more inhibition. Type of assay: functional, Erythrocyte. The conditions noted are these: timepoint 72 hour.
Turning to `O=C(CCNC(=O)c1ccncc1)NCCO`, the “% Inhibition” value is -9% and the Z score turned out to be 1.65.
For `O=C(NC[C@H]1CCC(=O)N(Cc2ccccc2)CC1)c1cncc(Br)c1` the same measures were -16% and 1.55.
For `Cc1nc(-c2ccncc2)sc1-c1ccncn1` the same measures were 2% and -0.24.
Take `O=C(C(=O)N(CC(F)(F)F)C1CC1)c1ccc(-c2ccccc2)cc1`: the “% Inhibition” value stood at 8% and the Z score is given as -1.09.
For `Cc1ccc(S(=O)(=O)N2CC(=O)N(C3CCCC3)C3(CCCCC3)C2)c(C)c1` the same measures were -7% and 0.99.
For `CCn1cc(Cl)c(C(=O)N(C[C@H]2CCOC2)C2CCN(C)CC2)n1` the same measures were -1% and 0.07.
For `CC[C@H]1COCCN1S(=O)(=O)N1CCC(OC)CC1` the same measures were -2% and 0.16.
`Cc1ccc(Oc2ccc(Cl)cc2NC(=O)CCc2nnc(-c3ccsc3)o2)cc1`: the “% Inhibition” value is -3% and the Z score stood at 0.41.
For the molecule `O[C@@H]1CCCC[C@H]1CNCc1cnnn1Cc1ccccc1`, the “% Inhibition” value is given as 0% and the Z score is recorded as 0.05.
Regarding `C#Cc1cccc(NC(=O)C(C)(C)C)c1`, the “% Inhibition” value is -10% and the Z score turned out to be 1.43.
For `CC(C)S(=O)(=O)CC(=O)N1CCC[C@H](C(C)(C)C)CC1` the same measures were -12% and 1.58.
For `Cc1nccn1Cc1ccc(NC2CCN(C(C)C)CC2)cc1` the same measures were -8% and 0.74.
For `Cc1ccsc1CN(C)Cc1n[nH]c(C)c1Cl` the same measures were -3% and 0.32.
In the case of `COc1cccc(OCCc2ccccc2S(N)(=O)=O)c1`, the “% Inhibition” value is given as -3% and the Z score is reported as 0.47.
For `CC(=O)N1CCC(C(=O)N2C[C@@H]3NC(=O)CN(C4CC4)Cc4cccc(c4)Oc4cccc(c4)CO[C@H]3C2)CC1` the same measures were -2% and 0.26.
Take `COc1cc(C(=O)N2CCc3[nH]ncc3C2)nc(OC)n1`: the “% Inhibition” value is -10% and the Z score was found to be 1.44.
For `CN(Cc1nnc[nH]1)C(=O)c1ccc(C(F)(F)F)cc1Cl` the same measures were -9% and 1.52.
For `C=CCCC1COC(c2ccc(C#N)cc2)OC1` (stereo not given) the same measures were -47% and 5.53.
On to `O=C(c1ccc[n+]([O-])c1)N(Cc1ccccc1)Cc1ccccc1`, for which the “% Inhibition” value stood at 34% and the Z score is recorded as -4.96.
For `O=C(N[C@H](c1cccnc1)C(F)(F)F)c1cnn(-c2ncc3c(n2)-c2ccccc2CC3)c1C1CC1` the same measures were -1% and 0.21.
In the case of `CCOC(=O)c1cnn(-c2ccccn2)c1CN1CC[C@@](O)(c2ccccc2)[C@H]2CCCC[C@H]21`, the “% Inhibition” value is listed as -9% and the Z score is listed as 1.09.
For `CCOC(=O)CCNC(=O)Cc1csc(NC(C)C(C)CC)n1` (stereo not given) the same measures were -11% and 1.92.
`O=C(O)CN(C1CC1)C1Cc2ccccc2C1`: the “% Inhibition” value is reported as -7% and the Z score was found to be 0.89.
For `Cc1noc(C)c1CCC(=O)N[C@H]1CCCN(C)C1` the same measures were 7% and -0.87.
For `O=C1O[C@]2(CCCN(C(=O)Cn3ccc4ccccc43)C2)c2ccccc21` the same measures were -7% and 0.84.
For `COc1cccc(F)c1-c1cc(-n2cccn2)ncn1` the same measures were -7% and 0.78.
Take `c1ccc2c(c1)C[C@H](Cc1ccc(N3CCCC3)nn1)CO2`: the “% Inhibition” value is -17% and the Z score turned out to be 2.3.
Turning to `CCC[C@H](C)N1CC2(CCN(C(=O)c3cn(CCC)nc3C)CC2)OC1=O`, the “% Inhibition” value was found to be 0% and the Z score is on record as -0.07.
For `O=C(NCc1ccco1)C1Cc2cc(C(F)(F)F)ccc2N2CCN(Cc3ccc(Cl)cc3)CC12` (stereo not given) the same measures were 1% and -0.15.
As to `Cc1cccc(C)c1Oc1ccccc1NC(=O)C(=O)N1CCC(O)CC1`, the “% Inhibition” value stood at 3% and the Z score is given as -0.37.
For `CC[C@H](NS(=O)(=O)N1CCCCC1)c1cn2cccnc2n1` the same measures were 1% and -0.09.
`Cc1ocnc1C(=O)N(Cc1ccccc1)[C@H]1CC(C)(C)OC1(C)C`: the “% Inhibition” value is recorded as 5% and the Z score is listed as -0.84.
As for `COc1ccc(C[C@H]2CCOC3(CCN(C(=O)C4CCCC4)CC3)C2)cc1`, the “% Inhibition” value was -14% and the Z score was determined as 1.81.
For `Cc1cc2c(cc1C)N(CC(=O)Nc1ccc(Cl)cc1F)C(=O)CC(c1cccs1)=N2` the same measures were 0% and 0.05.
On to `COc1ccccc1OCC(=O)c1ccc2c(c1)N([C@@H](C)C(=O)NC1CC1)C(=O)CO2`, for which the “% Inhibition” value is listed as -11% and the Z score is recorded as 1.05.
For `Cc1ccc(NC(=O)CN2CCC[C@H]2c2nc(-c3ccccc3F)c[nH]2)cc1` the same measures were -7% and 0.85.
For `CC(C)CCOc1ccc(NC(=O)c2ccc(C#N)cn2)nn1` the same measures were -6% and 0.79.
For `O[C@@H](Cn1ccnc1-c1ccccc1-c1ccco1)c1ccccc1` the same measures were 5% and -0.89.
Take `C[C@H]1COCCN1C(=O)c1cccc2sc(C(F)(F)F)nc12`: the “% Inhibition” value is recorded as 0% and the Z score is on record as 0.07.
For `Fc1cc(Cl)ccc1-c1ccc(CNCCc2c[nH]cn2)o1` the same measures were -2% and 0.4.
For `COc1ccc(-c2c(C(=O)N3CCCCC3)nc3ccccn23)cc1` the same measures were -1% and 0.16.
For `CN(Cc1cnn(-c2ccccc2)c1)c1ccc(F)cn1` the same measures were 4% and -0.51.
For the molecule `Cc1noc(NC(=O)[C@@H](C)Cn2cncn2)c1-c1ccccc1`, the “% Inhibition” value is 4% and the Z score is reported as -0.35.
For `Cc1cc(F)c2nc(O)cc(C(=O)N3CCC4OCCCC4C3)c2c1` (stereo not given) the same measures were -9% and 0.81.
In the case of `C=CC[C@]1(CO)CCCN(C(=O)c2cc(C(C)C)n[nH]2)C1`, the “% Inhibition” value was -4% and the Z score is recorded as 0.75.
For `N#Cc1cccnc1NCCN1CCCOCC1` the same measures were -8% and 1.33.
For `COc1ccc(Cn2c(CCC(=O)NCc3ccc(Cl)cc3)nc3ncccc3c2=O)cc1` the same measures were 3% and -0.55.
Take `Cc1c(Cl)cnn1CCOCC(F)(F)C(F)F`: the “% Inhibition” value was -4% and the Z score is 0.69.
For `CS(=O)(=O)NCCOCc1ccc(Cl)cc1Cl` the same measures were -4% and 0.58.
Consider `Cc1cccnc1CNC(=O)N1CCC([C@H](O)c2ccccn2)CC1`, for which the “% Inhibition” value is given as -3% and the Z score is on record as 0.6.
Take `N#Cc1nc2nnc3ccc(O)cc3n2c1C#N`: the “% Inhibition” value is given as -34% and the Z score stood at 3.96.
For `Cc1ccc(C(=O)Cn2cnc3c2c(=O)n(C[C@H]2CCCO2)c(=O)n3-c2ccccc2C)c(C)c1` the same measures were -16% and 1.51.
For the molecule `CC1CCCC(NC(=O)CN(C)C2CCC(CO)CC2)C1C` (stereo not given), the “% Inhibition” value was -12% and the Z score worked out at 1.4.
With `CCC1CCC(N(C)C(=O)c2cnc3c(C)cccn3c2=O)CC1` (stereo not given), the “% Inhibition” value was -6% and the Z score is given as 0.7.
For `Cc1c(C(=O)NC[C@H]2Cc3ccccc3O2)nnn1C(C)C` the same measures were 7% and -0.93.
For `Cc1ccc(C(=O)N2CC3(C[C@H](N4CCCCC4)CO3)C2)cc1C` the same measures were -7% and 1.07.
For `Cc1ccc(N(CCC#N)C(=O)COC(=O)C2CCN(S(=O)(=O)c3ccc(C)c(C)c3)CC2)cc1`, the “% Inhibition” value is -15% and the Z score came to 1.46.
For `CNC(=O)CN1CCC(CN(C)c2cc(C)nc(C3CC3)n2)CC1` the same measures were -5% and 0.67.
For `C#CCNS(=O)(=O)c1cnc(C(F)(F)F)c(C(=O)OCC)c1` the same measures were -20% and 2.81.
Take `Cc1nc(-c2ccccc2C(=O)O)c2ccsc2n1`: the “% Inhibition” value is 5% and the Z score is listed as -0.84.
For `COCCOCC(=O)N1CCC(n2c(C)cnc2COC)CC1` the same measures were -8% and 1.08.
For `COCc1nc2c(s1)CN(C(=O)c1ccc(OC)cc1)CC2` the same measures were -10% and 1.36.
Consider `CCCC(C)C(=O)N[C@H]1CCO[C@@H]1c1cc[nH]n1` (stereo not given in full), for which the “% Inhibition” value turned out to be 2% and the Z score is recorded as -0.22.
For `CC(C)Cc1cc(CNC(=O)c2ccc([C@H](C)N3CCCCC3)o2)on1` the same measures were -6% and 0.72.
For `C[C@@H](CN(C)c1ncncc1-c1ccccc1)C(=O)O` the same measures were -1% and 0.09.
For `c1cnn(Cc2ccc(CN3CC(c4ccncc4)C3)cc2)c1` the same measures were -7% and 1.28.
As to `O=C(NC1CCN(C2CCCCC2O)CC1)c1csc(Cl)c1` (stereo not given), the “% Inhibition” value is listed as -3% and the Z score is recorded as 0.45.
For `Cn1c(N2CCN(c3ccccn3)CC2)nc2c1c(=O)n(Cc1ccc(Cl)cc1)c(=O)n2C` the same measures were 36% and -0.76.
For `CC(=O)NCCC(=O)N1CCC[C@H](C)C1` the same measures were 6% and -0.67.
For `Cc1noc([C@H](C)NC(=O)Nc2cc(N3CCOC3=O)ccc2F)n1` the same measures were 2% and -0.26.
In the case of `Cn1ncc(Cn2ncn(C)c2=O)c1C(F)(F)F`, the “% Inhibition” value is 1% and the Z score is -0.15.
For `CC(=O)N1C[C@H](NC(=O)C(F)(F)F)CC[C@H]1C(F)(F)F` the same measures were -4% and 0.52.
For `O=C(CN1N=C(c2ccccc2)c2ccccc2S1(=O)=O)Nc1ccccc1C(F)(F)F` the same measures were 6% and -0.53.
Consider `c1ccc(CNCCc2cccc3c2NCCC3)cc1`, for which the “% Inhibition” value was -9% and the Z score was determined as 1.09.
For `CCC(C)(NC(=O)c1ccccn1)C(=O)NC(/C=C/c1ccc(Cl)cc1Cl)C(C)(C)C` (stereo not given) the same measures were 6% and -0.71.
Regarding `COc1ccc2c(c1)OC[C@]1(CO)CN(Cc3ncc[nH]3)C[C@H]21`, the “% Inhibition” value is -1% and the Z score is recorded as 0.25.
For `COc1c2c(c(S(=O)(=O)NCCc3c[nH]c4ccccc34)c3c1C(=O)N(C)CC3)OCO2` the same measures were -4% and 0.52.
`COCCn1cnc2ccc(NC(=O)c3cn(CCOC)c(=O)c4ccccc34)cc2c1=O`: the “% Inhibition” value is given as 3% and the Z score was -0.43.
For `O=C1c2ccccc2[C@](O)(c2ccccc2)N1c1ccc(N2CCOCC2)cc1` the same measures were -2% and 0.18.
For `O=C(Nc1cccc(Br)c1)N1CCC(n2cnc3cccnc32)CC1` the same measures were 3% and -0.42.
For `Cc1ccc(-c2nnc(NC(=O)N(C)Cc3cccnc3)s2)cc1` the same measures were -5% and 0.65.
On to `N#Cc1ccc(OCCN2CCN(c3nccs3)CC2)cc1`, for which the “% Inhibition” value is listed as 1% and the Z score is -0.22.
In the case of `CN(C)c1ncnc2c1cc(C(=O)N1CC[C@@H]3CCC[C@@H]31)n2C`, the “% Inhibition” value is -13% and the Z score is 2.38.
For `CC(C)(C)n1nc(-c2ccccc2)nc1CCN1CCC(C(N)=O)CC1` the same measures were -17% and 2.03.
With `CCc1nn(C)cc1C(=O)NS(=O)(=O)Cc1ccc2c(c1)COC2`, the “% Inhibition” value came to 9% and the Z score was -1.33.
